This assay relates to NCI-H322M lung. Put plainly: NCI anticancer screen, dose series, 48 h.

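Values below derive from 48-hour exposures of cells grown in 96-well plates, with endpoints linearly interpolated between the two concentrations bracketing the appropriate inhibition level. Here, GI50 denotes the concentration required for 50% inhibition of growth. TGI denotes the concentration required for complete inhibition of growth.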 Calls of active or inactive are those of the source. Cut-off read from the data, not from the text of the source: active = GI50 below about 0.43 µM; inactive = the rest.

On to `O=C(OCCOC(=O)c1ccc2c(c1)C1(SCCS1)c1ccccc1-2)c1ccc2c(c1)C1(SCCS1)c1ccccc1-2`, for which the TGI is > 100 µM.
In the case of `O=C(Nc1ccc([As]=[As]c2ccc(NC(=O)c3ccccc3)cc2)cc1)c1ccccc1` (stereo not given), the GI50 was 1.69 µM and the TGI was found to be 3.12 µM.
Regarding `NCCN.O=C([O-])C(=O)[O-].O=C([O-])C(=O)[O-].[Co+3].[K+]`, the GI50 is > 100 µM and the TGI is > 100 µM.
Take `COC(=O)C1CCC2(C)[C@H](CCC3O[C@]32C)[C@@]1(C)CC(=O)c1ccoc1` (stereo not given in full): the TGI was > 100 µM.
In the case of `O=C1C(=Cc2cccs2)C(=O)N(CCc2ccccc2)S(=O)(=O)N1CCc1ccccc1`, the TGI was > 50 µM.
For `C=C1C(=O)OC2/C=C(/CO)C3(O)CC(O)C(C)(CC(OC(=O)/C(C)=C/C)C12)O3` (stereo not given), the TGI is > 100 µM.
Same read-out and setting: as for `CCOC(=O)/C(=C\NCc1ccc2c(c1)OCO2)c1nc2ccccc2[nH]1`, the figure is > 100 µM; as for `Cn1ncc2c(Nc3ccc(Cl)cc3)c3ccccc3nc21`, 42.1 µM; as for `CCOc1ccc2nc(NC(=O)C(=O)C(C#N)CC(C)(C)C=O)sc2c1` (stereo not given), > 100 µM.
With `COC(=O)CCc1ccc2c(c1)[C@H](C(=O)OC)[C@@H](c1ccc(O)cc1)O2`, the TGI is > 100 µM.
Consider `c1ccc([Si](OCCN2CC2)(c2ccccc2)c2ccccc2)cc1`, for which the TGI is 29.5 µM.
The same measure, in the same setting: next, `COc1cc([C@@H]2C3C(=O)c4ccccc4C3[C@@H](c3cc(OC)c(OC)c(OC)c3)C23Cc2ccccc2C3=O)cc(OC)c1OC` (stereo not given in full): > 100 µM.
`C[CH2][Pb]([CH2]C)([CH2]C)[O]C(=O)COc1ccccc1`: the GI50 was 1.98 µM and the TGI was 6.32 µM.
Molecule `COc1ccc(OC)c2[nH]c(Sc3c([N+](=O)[O-])ncn3C)nc12` gave a TGI of 91.2 µM.
Same read-out and setting: next, `O=C(Nc1ccc(Cl)c(Cl)c1)C(=O)C(C(=O)c1ccccc1F)C1OC(=O)c2ccccc21` (stereo not given): 70.6 µM.
Same read-out and setting: next, `O=C1c2cccc(O)c2C(=O)c2cccc(O)c21`: > 100 µM.
In the case of `CC(=N\O)/C(C)=N/O.CC(=N\O)/C(C)=N/O.CC(=N\O)/C(C)=N/O.CC(=N\O)/C(C)=N/O.[CH3-].[CH3-].[Co].[Co]`, the GI50 is 23.6 µM and the TGI is > 100 µM.
For the molecule `C[Si](C)(c1ccccc1)C1CC(=O)CC(=O)C1`, the TGI was > 100 µM.
Regarding `CCCC(=O)c1c(NOC2OCC(OC(C)=O)C(OC(C)=O)C2OC(C)=O)nc(OC)n(C)c1=O` (stereo not given), the TGI was > 100 µM.
With `O=C1c2cc3ccccc3cc2C2(c3ccc(Cl)cc3)NCCN12` (stereo not given), the TGI was > 100 µM.
As to `O=C(N/N=C(\CN1CCN(c2cc3[nH]cc(C(=O)O)c(=O)c3cc2F)CC1)c1ccc(Cl)cc1)c1ccncc1`, the GI50 was 25.4 µM and the TGI was > 100 µM.
Turning to `O=CN/N=C/c1ccc(Cl)c([N+](=O)[O-])c1`, the GI50 was 0.398 µM and the TGI is > 100 µM.
`CN(C)CCNc1ccc(NCC[N+](C)(C)Cc2ccc([N+](=O)[O-])cc2)c2c1C(=O)c1ccccc1C2=O`: the TGI is > 25 µM.
For the molecule `Cc1cc(C2CC(O)C(CO)O2)c(Cl)cc1Cl` (stereo not given), the GI50 was > 100 µM and the TGI was > 100 µM.
For `O=C(/C=C/c1ccc(Br)cc1)c1ccc(NCc2nc3ccccc3[nH]2)cc1`, the TGI was > 90.4 µM.
Turning to `c1ccc2c(CC3NCCN3)cccc2c1`, the TGI is > 100 µM.
For `O=C(CCc1ccc(O)c(O)c1)OCCc1ccccc1`, the TGI was 93 µM.
For the molecule `Nn1c2c(c3ccccc3c1=O)C(=O)c1ccccc1-2`, the GI50 is > 50 µM and the TGI was > 50 µM.
`c1ccc2c3ccn4ccc5c6ccccc6[nH]c5c4c-3nc2c1` yielded a TGI of 2.25 µM.
For the molecule `CC(CC(=O)O)(CC(=O)O)c1ccccc1`, the TGI was > 100 µM.
Consider `CC1OC(OC2C(O)CC(OC3C(O)CC(OC4CCC5(C)C(CCC6C5CCC5(C)C(C7=CC(=O)OC7)CCC65O)C4)OC3C)OC2C)CC(O)C1O` (stereo not given), for which the GI50 is 0.075 µM and the TGI stood at 0.469 µM.
For `CC(C)OC(=O)c1cc(NS(=O)(=O)c2ccc3ccccc3c2)cc(C(=O)OC(C)C)c1`, the GI50 was 84.9 µM and the TGI is > 100 µM.
As to `C[C@@]1(C(=O)c2ccccc2)N(c2ccccc2)[C@@]1(C)C(=O)c1ccccc1`, the result was inactive.
In turn, `CCc1cccc(CC)c1NC(=O)C(C#N)C1=C(Cl)C(=O)c2ccccc2C1=O` (stereo not given) yielded a TGI of 40.3 µM.
As for `C=C1C(=O)O[C@H]2[C@H]1CC/C(COC(=O)/C=C\C(=O)NCc1ccc(Cn3c(=O)sn(CCCI)c3=O)cc1)=C\CC[C@@]1(C)O[C@@H]21`, the GI50 was 0.865 µM and the TGI was 2.16 µM.
Take `O=CC1=C(C(=O)OC(c2ccccc2)c2ccccc2)N2C(=O)[C@@H](NC(=O)Cc3cccs3)[C@H]2SC1`: the TGI was > 100 µM.
On the same count and under the same terms, next, `O=[N+]([O-])c1ccc(-c2noc(-c3ccccc3)c2C2=NCCN2)cc1`: > 100 µM; `CC1(C)CN=C(Nc2ccc(F)cc2)S1`: > 100 µM.
Consider `N#Cc1c(Br)n(C2OC(CO)C(O)C2O)c2ncn3ccnc3c12` (stereo not given), for which the GI50 is > 100 µM and the TGI is > 100 µM.
Turning to `NC1=NS(=O)(=O)Nc2nc(-c3ccc(Cl)cc3)[nH]c21`, the TGI was > 100 µM.
Same read-out and setting: next, `C/C=C1\C(=O)O[C@H]2C/C(C)=C/CC/C(C)=C/CC[C@@]3(C)O[C@@H]3C[C@@H]12`: > 100 µM; `C#CCOC(=O)C(N)C(C)O` (stereo not given): > 100 µM; `C=CCc1cccc2cc(C(N)=O)c(=N)oc12`: > 100 µM.
For the molecule `COc1cc2c[n+](C)c3c4cc(OC)c(OC)cc4c(OCc4ccccc4)cc3c2cc1OC`, the TGI was > 41 µM.
The same measure, in the same setting: next, `CC1(O)CCC(C(C)(C)O)CC1` (stereo not given): > 100 µM; `COC(=O)c1cc(C)ccc1/C=C1\Cc2cccc(C)c2C1=O`: > 100 µM; `CN(/N=C(\C(=O)O)c1ccccc1)C1=NCCN1`: > 100 µM.
The same measure, in the same setting: as for `Cc1nn(C(=O)c2ccccc2O)c2c1C(c1ccco1)SC(N)=N2` (stereo not given), the figure is > 10 µM.
For `Cc1cc(O)c(/C=N/c2nc(-c3ccc([N+](=O)[O-])cc3)cs2)c(=O)o1`, the TGI was > 100 µM.
Same read-out and setting: next, `O=c1c2ccc(Cl)cc2oc2c(CNc3ccc(S(=O)(=O)Nc4nccs4)cc3)cccc12`: > 100 µM.
On to `O=[N+]([O-])c1ccc2c(c1)C(=NO)c1cc([N+](=O)[O-])ccc1-2`, for which the GI50 was 20.4 µM and the TGI was > 100 µM.
In the case of `O=C1CC2(CCC(O)(c3ccccc3)C(C(=O)c3ccccc3)C2)C(=O)c2ccccc2N1` (stereo not given), the TGI is > 100 µM.
The same measure, in the same setting: next, `Nc1ccc(C(=O)NN2C(=O)[C@H](Cl)C2c2ccc(Cl)cc2)cc1` (stereo not given in full): 5.21 µM; `O=C1O/C(=C\c2ccc(O)c(Br)c2)C(c2ccc(O)c(Cl)c2)=C1Br`: 44.5 µM; `C=C1C(NC)CCC23CC24CCC2(C)C(C(C)=O)C(O)CC2(C)C4CCC13` (stereo not given): > 100 µM.
Still for that read-out and setting: as for `COc1ccc2c(c1)NC(=O)CN2c1nc(NC2CC2)nc2ccccc12`, the figure is > 100 µM; as for `O=C(Nc1ccc(Cl)cc1)c1cc2c(cc1Cl)Sc1nccn1S2(=O)=O`, > 100 µM.
Still for that read-out and setting: as for `COc1ccc(Oc2ccc3cc4c(cc3c2O)OCO4)c2cc(C)oc12`, the figure is > 100 µM.
As for `Cc1ccc(NC2=N[C@]34CC(=O)CC[C@]3(C)[C@H]3CC[C@]5(C)C(=O)CC[C@H]5[C@@H]3C[C@@H]4S2)c(C)c1`, the GI50 was 4.28 µM and the TGI was > 100 µM.
For `CCOP1(=O)C=CC(Cl)=C(C)C1` (stereo not given), the TGI amounted to 59.7 µM.
Consider `COC(=O)C1=C(C(=O)OC)C2(CCCCCC2=O)OC1=O` (stereo not given), for which the TGI is > 100 µM.

These data come from PubChem BioAssay (NCI).
